172 sequences from PMC6212790 can be followed below.

The list shows a part of the results. At the low end of the ranking, values are background and their order means little.

The test addresses T1, GST-Rok-C97-191 (UniProt O34857).
T1 sequence: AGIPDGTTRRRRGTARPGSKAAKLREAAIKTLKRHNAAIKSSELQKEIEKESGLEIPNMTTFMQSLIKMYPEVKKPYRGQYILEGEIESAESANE
As to the kind of experiment: protein binding microarray.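 Also: rank score from −0.5 (least bound) to 0.5 (best bound).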 Particulars: Rok is a gene silencer of Bacillus subtilis; high values mean tight binding; most listed sequences are background and not binding sites; double strand, one strand shown.
For AATGAGCG, the binding signal is -0.202 E-score.

The sequence GTTTCTTA returned a binding signal of 0.195 E-score.

Turning to CAACCCCG, the binding signal was -0.309 E-score.

The sequence CGATGTAA came in with a binding signal of 0.00338 E-score.

For ACTGCAGG, the binding signal is 0.022 E-score.

Turning to CCTGGACA, the binding signal was -0.0965 E-score.

Take GGTCCCAA: the binding signal was -0.183 E-score.

ATAAGTGA: the binding signal is 0.0568 E-score.

The sequence ATAAAAAG displayed a binding signal of 0.191 E-score.

Regarding CCTGAACA, the binding signal is -0.0783 E-score.

Take GATGGTTA: the binding signal is -0.0423 E-score.

Sequence ATAGCGAT showed a binding signal of 0.232 E-score.

Sequence CATGTGGA yielded a binding signal of 0.124 E-score.

In turn, GAGAGATC showed a binding signal of -0.0931 E-score.

AACAGAAC yielded a binding signal of 0.0833 E-score.

Consider AACCGAAT, for which the binding signal is -0.106 E-score.

Turning to ATCTCCAC, the binding signal was -0.0487 E-score.

Regarding AAACAAAC, the binding signal was -0.248 E-score.

For CAGACCAG, the binding signal is -0.253 E-score.

As for ACGGCTGA, the binding signal was -0.222 E-score.

CTCGCGTC registered a binding signal of -0.286 E-score.

TGCCTGAA came in with a binding signal of -0.0885 E-score.

As to AAATGTTG, the binding signal was 0.00331 E-score.

Turning to ACTGCCAA, the binding signal was -0.198 E-score.

Sequence CCGAGTCG returned a binding signal of -0.148 E-score.

On to AGTCATCA, for which the binding signal was -0.123 E-score.

Take GGAATTGA: the binding signal stood at 0.105 E-score.

In turn, GCGATTAC showed a binding signal of -0.196 E-score.

For the sequence ATCTGCCG, the binding signal worked out at 0.13 E-score.

With AATTCTCG, the binding signal amounted to 0.243 E-score.

As for GAGAACTA, the binding signal was 0.242 E-score.

For the sequence CATTGATC, the binding signal is 0.197 E-score.

Sequence ATCGATCA returned a binding signal of 0.179 E-score.

Consider GGAAGCAA, for which the binding signal is -0.106 E-score.

Sequence AGTATAAC showed a binding signal of 0.13 E-score.

The sequence GCAACTCA came in with a binding signal of -0.0426 E-score.

On to CGTGCCCA, for which the binding signal was -0.304 E-score.

GGACGGCC gave a binding signal of -0.357 E-score.

Consider CAATAGCA, for which the binding signal is 0.0689 E-score.

As for GCAGATCA, the binding signal was -0.215 E-score.

On to ATCACTGG, for which the binding signal is -0.0556 E-score.

With TAGATACA, the binding signal is 0.329 E-score.

For CGAGTAAG, the binding signal was -0.262 E-score.

As for AACCGTCG, the binding signal was -0.167 E-score.

CGTTTTGA: the binding signal was -0.0763 E-score.

As for CTGTTGCA, the binding signal was -0.0379 E-score.

The sequence CTCGTGAC yielded a binding signal of -0.183 E-score.

Regarding ACCCCTCA, the binding signal was -0.271 E-score.

With TGATAGCA, the binding signal is 0.236 E-score.

The sequence CCAACAGC had a binding signal of -0.0285 E-score.

For GGGAACGA, the binding signal is -0.0532 E-score.

For ATGCTATC, the binding signal is 0.283 E-score.

Sequence CGATCTAA yielded a binding signal of -0.0333 E-score.

GCTAATAA returned a binding signal of 0.212 E-score.

In turn, AGTGAAGG registered a binding signal of -0.256 E-score.

CGTCCCGC: the binding signal is -0.289 E-score.

Take ATCAACCA: the binding signal is -0.0125 E-score.

As for CAAGCGTA, the binding signal was 0.0078 E-score.

Take CCGCGGAC: the binding signal is -0.146 E-score.

Sequence TATCGGGA displayed a binding signal of 0.156 E-score.

In turn, AGACCGCC came in with a binding signal of -0.225 E-score.

The sequence GTAACTCA returned a binding signal of 0.162 E-score.

AATACTCC registered a binding signal of 0.275 E-score.

Turning to ATTAGATC, the binding signal was determined as 0.0978 E-score.

In turn, AGAAATCC returned a binding signal of 0.0236 E-score.

Take AGCAGCTG: the binding signal is -0.199 E-score.

As for AACAACAA, the binding signal was 0.1 E-score.

Take GTCTCTGA: the binding signal is 0.0338 E-score.

For CATGAGGC, the binding signal is -0.211 E-score.

Regarding CCGTTAGA, the binding signal is -0.114 E-score.

In turn, ATAGAACG registered a binding signal of 0.159 E-score.

Turning to CAATCCAG, the binding signal was 0.0523 E-score.

On to GCCATGGC, for which the binding signal is -0.27 E-score.

On to CGCTAGCA, for which the binding signal was found to be 0.058 E-score.

For the sequence CGAGCCCA, the binding signal is -0.249 E-score.

In turn, CACAGCAC returned a binding signal of -0.0657 E-score.

CTGATATC registered a binding signal of -0.0192 E-score.

AAGTGGGC displayed a binding signal of -0.201 E-score.

In turn, ACAGAACC yielded a binding signal of -0.15 E-score.

Turning to CAAGACGA, the binding signal was -0.0601 E-score.

Take CTCTGTGA: the binding signal is -0.00307 E-score.

For CAAAGGAC, the binding signal was -0.168 E-score.

CAGTCGCG showed a binding signal of -0.242 E-score.

In the case of AGACAGGC, the binding signal was -0.177 E-score.

Consider AAACGTGA, for which the binding signal was -0.0327 E-score.

CTGAAAGC: the binding signal was -0.2 E-score.

Consider AAATGTAT, for which the binding signal was 0.27 E-score.

AGCTATCG gave a binding signal of 0.266 E-score.

TCTCCAAA returned a binding signal of 0.0829 E-score.

Turning to GTGGTGGA, the binding signal was -0.0143 E-score.

The sequence CTCCCAAC came in with a binding signal of -0.0897 E-score.

As for AGAACCAT, the binding signal was 0.0927 E-score.

CTAGCGAC had a binding signal of -0.0545 E-score.

CGATACCA showed a binding signal of 0.079 E-score.

Consider CAGGTGGA, for which the binding signal is -0.331 E-score.

In turn, CGTTAATC showed a binding signal of -0.0282 E-score.

In turn, AAGCCGAG gave a binding signal of -0.0461 E-score.

In turn, AGAGTAGA had a binding signal of 0.143 E-score.

Consider AACCCATA, for which the binding signal turned out to be 0.149 E-score.

As for CCTCCAAA, the binding signal was -0.223 E-score.

In turn, CATACCGA registered a binding signal of 0.0669 E-score.

With CCTCGCCA, the binding signal is -0.266 E-score.

In the case of ACTACCCT, the binding signal was determined as 0.163 E-score.

ATTAAACA gave a binding signal of -0.0268 E-score.

Sequence AGGGACGA came in with a binding signal of -0.218 E-score.

As for AGTAATTG, the binding signal was 0.31 E-score.

The sequence CGATAGTA came in with a binding signal of 0.382 E-score.

Consider TCACTCGA, for which the binding signal is 0.0326 E-score.

The sequence ACACTGGT displayed a binding signal of 0.0216 E-score.

In turn, AAGAAGAA registered a binding signal of -0.202 E-score.

Turning to TCACATGA, the binding signal came to 0.0772 E-score.

ATGCTGGC showed a binding signal of 0.0262 E-score.

Sequence GGATCTCA displayed a binding signal of -0.115 E-score.

CCTGACTA had a binding signal of -0.135 E-score.

ATGCGTGC came in with a binding signal of -0.261 E-score.

ACGGGGCC displayed a binding signal of -0.132 E-score.

On to GGGACACA, for which the binding signal was -0.121 E-score.

The sequence GCGGGTCA returned a binding signal of -0.143 E-score.

As for CCGATTAC, the binding signal was -0.0648 E-score.

Consider ACCGTGAA, for which the binding signal is -0.0551 E-score.

On to AACCGCTA, for which the binding signal stood at 0.19 E-score.

For the sequence CATCTGAG, the binding signal is 0.137 E-score.

With ACTGCAAA, the binding signal was determined as 0.0159 E-score.

Sequence ACAGGACT yielded a binding signal of -0.143 E-score.

The sequence AGTGGTCA showed a binding signal of -0.106 E-score.

In turn, CCGTTTCC came in with a binding signal of -0.121 E-score.

For AAATGGGT, the binding signal stood at 0.18 E-score.

Take CCCTAACG: the binding signal was -0.25 E-score.

GCGCACGA gave a binding signal of -0.25 E-score.

For AATAGTAC, the binding signal was found to be 0.293 E-score.

CATGTCGA gave a binding signal of -0.00927 E-score.

For AACTAGCT, the binding signal was found to be 0.342 E-score.

ACTCCCAT gave a binding signal of 0.0238 E-score.

Take CGGGATAA: the binding signal is 0.0954 E-score.

As for CCCGATTA, the binding signal is -0.026 E-score.

Take ATGAATCC: the binding signal is 0.0584 E-score.

In turn, ATGTTCTC came in with a binding signal of 0.0718 E-score.

CCTTGACC returned a binding signal of -0.0957 E-score.

Sequence ACCGCCGT showed a binding signal of -0.0192 E-score.

AACATTGG had a binding signal of -0.141 E-score.

Turning to AGCGGAGG, the binding signal was -0.227 E-score.

As to GCAATTCA, the binding signal was 0.0922 E-score.

GATCATGA registered a binding signal of 0.0364 E-score.

As to ACTGAAGC, the binding signal was -0.0393 E-score.

GGTGTCAC yielded a binding signal of -0.0727 E-score.

Take AGTCGCCC: the binding signal was -0.209 E-score.

CACTAGGC yielded a binding signal of -0.0137 E-score.

ACGGGTGG: the binding signal is -0.0117 E-score.

Sequence TATAATAA gave a binding signal of 0.374 E-score.

As to CGGCAAAC, the binding signal turned out to be 0.168 E-score.

As for GCACTTCC, the binding signal is -0.0221 E-score.

The sequence CCACAAGA showed a binding signal of -0.0122 E-score.

GCTGATAC came in with a binding signal of -0.05 E-score.

On to ACCGCGAG, for which the binding signal is -0.167 E-score.

ATTGTAAC returned a binding signal of 0.185 E-score.

Sequence GATATACC came in with a binding signal of 0.153 E-score.

CGAATTTC came in with a binding signal of 0.0914 E-score.

As for GAGTCACA, the binding signal is -0.0339 E-score.

As for CACGACTA, the binding signal amounted to 0.0522 E-score.

Take AATAAATA: the binding signal was determined as 0.258 E-score.

In turn, CTCAGTAC yielded a binding signal of -0.0313 E-score.

Take GACCGAGC: the binding signal is -0.195 E-score.

Sequence AACGCGGA had a binding signal of -0.147 E-score.

For the sequence CAGGAGCG, the binding signal is -0.131 E-score.

As to GCTCTGCA, the binding signal is -0.158 E-score.

ATCCAAGA came in with a binding signal of 0.167 E-score.

As to CCCTTACA, the binding signal was found to be 0.0781 E-score.

AGTGTGGC came in with a binding signal of -0.16 E-score.

CATAGACC came in with a binding signal of 0.0635 E-score.

As for ATGCATCC, the binding signal is -0.109 E-score.

As to TCGGTGAA, the binding signal was -0.0788 E-score.

Turning to TTCCAGAA, the binding signal stood at 0.0997 E-score.
